Test results reported in PubChem BioAssay AID596 (National Center for Advancing Translational Sciences (NCATS), 2007).
The campaign covered roughly 71,000 compounds. About 1,400 (2%) were called active. The shares of active, inactive and inconclusive entries below differ from those in the screen. Calls come from the whole dose curve; as a rule, active = well fitted curve in the direction sought with a large enough effect; inconclusive = small, poorly fitted or top-dose-only effect; inactive = no such curve, though single readings can be large or run the other way. Where the call is inconclusive, the potency comes from a doubtful curve fit.

These molecules were tested against Microtubule-associated protein tau (Homo sapiens) (UniProt P10636) (assay: qHTS Assay for Tau Filament Binding). Details: recombinant tau filaments, thioflavin S fluorescence, 15 h, filaments grown with octadecylsulfate alongside compound; series mostly up to 57.1 µM.
Summary of the method: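 Tau 2 uM in ThS buffer dispensed; compound added; 60 uM ODS added (finals 1 uM tau, 30 uM ODS); 15 h 37 C; fluor ex450/em510.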
% is set by controls: 0 for no effect and ±100 for the full control effect; potency is the fitted concentration of half-maximal effect.
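Note: actives lower thioflavin S fluorescence by blocking filaments or displacing dye.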

Chain of UniProt P10636 (P10636 whole entry, looked up): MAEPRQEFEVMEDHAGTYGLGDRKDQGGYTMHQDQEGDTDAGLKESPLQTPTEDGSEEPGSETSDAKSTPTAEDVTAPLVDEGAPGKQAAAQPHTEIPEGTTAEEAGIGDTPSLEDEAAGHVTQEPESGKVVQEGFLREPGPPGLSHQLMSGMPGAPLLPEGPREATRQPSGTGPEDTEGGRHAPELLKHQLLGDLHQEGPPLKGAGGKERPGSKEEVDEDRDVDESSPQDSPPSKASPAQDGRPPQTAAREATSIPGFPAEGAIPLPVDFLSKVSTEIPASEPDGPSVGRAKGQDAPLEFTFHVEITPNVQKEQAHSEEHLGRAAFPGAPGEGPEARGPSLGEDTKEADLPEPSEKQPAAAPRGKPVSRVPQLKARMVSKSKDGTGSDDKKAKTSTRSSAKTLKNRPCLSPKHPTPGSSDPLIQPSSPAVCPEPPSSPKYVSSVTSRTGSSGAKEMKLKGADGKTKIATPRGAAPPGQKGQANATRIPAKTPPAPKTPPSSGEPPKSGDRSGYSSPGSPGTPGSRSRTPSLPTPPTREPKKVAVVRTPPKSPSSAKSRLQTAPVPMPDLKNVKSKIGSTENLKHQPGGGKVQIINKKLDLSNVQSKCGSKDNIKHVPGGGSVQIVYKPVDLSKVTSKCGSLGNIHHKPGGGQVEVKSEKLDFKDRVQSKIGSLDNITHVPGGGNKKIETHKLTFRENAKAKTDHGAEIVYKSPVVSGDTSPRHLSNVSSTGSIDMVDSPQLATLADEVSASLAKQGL

Q: How did the activity change, negative = inhibition turn out when CC(C)CNc1nc2ncnc(N)c2[nH]1 was run?
A: inactive: -3.6% [at 11.4 µM]

Q: How did the Potency turn out when Cc1ccc(NCc2nnc(SCCN3CCCCC3)n2CC2CCCO2)cc1Cl (stereo not drawn) was run?
A: inconclusive: 25.1 µM [decreasing]

Q: Which Potency does the source give for FC(F)(F)c1cc(-c2ccco2)nc(NCc2cccs2)n1 here?
A: inconclusive: 31.6 µM [decreasing]

Q: CCOC(=O)c1c(C)[nH]c(C(=O)COC(=O)c2ccccc2NC(=O)c2ccco2)c1C was tested. Which Potency did it give?
A: inactive

Q: COC(=O)c1ccc(C2c3c(oc4ccccc4c3=O)C(=O)N2CCCN2CCOCC2)cc1 (stereo not drawn) was tested. Which Potency did it give?
A: inconclusive: 12.6 µM [decreasing]

Q: For COc1ccc2c(c1)Cc1sc(NC(C)=O)nc1-2, which Potency is on record?
A: inconclusive: 39.8 µM [decreasing]

Q: With COc1ccc(C2=C(N)c3ccccc3C2=O)cc1 as the molecule, how does the Potency read?
A: inconclusive: 31.6 µM [decreasing]

Q: COc1cc2cc(C(=O)Nc3ccccc3)c(N)nc2cc1OC was tested. Which Potency did it give?
A: inconclusive: 5.01 µM [decreasing]

Q: How did the Potency turn out when CCN1CCN(C(=O)c2cc3nc(-c4ccccc4)cc(C(F)(F)F)n3n2)CC1 was run?
A: inconclusive: 25.1 µM [decreasing]

Q: COc1ccc(C[C@H](C)NC[C@@H](O)c2ccc(O)c(NC=O)c2)cc1 was tested. Which Potency did it give?
A: inconclusive: 39.8 µM [decreasing]

Q: Which Potency does the source give for COc1ccccc1N1CCN(CC(=O)c2ccc3ccn(C(C)=O)c3c2)CC1 here?
A: inconclusive: 10 µM [decreasing]

Q: For O=C(c1cc(-c2ccco2)on1)N1CCCc2ccccc21, which Potency is on record?
A: inconclusive: 10 µM [decreasing]

Q: With Brc1c(NC2=NCCN2)ccc2nccnc12 as the molecule, how does the Potency read?
A: inconclusive: 39.8 µM [decreasing]

Q: For O=[N+]([O-])c1ccc(C2=Nn3c(nnc3-c3ccc(Cl)cc3)SC2)o1, which Potency is on record?
A: inconclusive: 3.16 µM [decreasing]

Q: CN1CCc2c(sc3c2C(=O)NC(c2cn(Cc4ccccc4)c4ccccc24)N3)C1 (stereo not drawn) was tested. Which Potency did it give?
A: inconclusive: 1 µM [decreasing]

Q: Which Potency does the source give for C[C@H](N=C(NC#N)Nc1ccncc1)C(C)(C)C here?
A: inconclusive: 39.8 µM [decreasing]

Q: With CCOC(=O)Nc1ccc2c(c1)Nc1ccccc1S2 as the molecule, how does the Potency read?
A: inconclusive: 31.6 µM [decreasing]

Q: How did the Potency turn out when Cc1ccccc1-c1cc(-c2ccccc2O)n[nH]1 was run?
A: inconclusive: 20 µM [decreasing]

Q: With CC(=O)O[C@H]1C[C@H]2CC[C@@H]3[C@H]4C[C@@H]([N+]5(C)CCCCC5)[C@@H](OC(C)=O)[C@]4(C)CC[C@@H]3[C@@]2(C)C[C@@H]1[N+]1(C)CCCCC1 as the molecule, how does the Potency read?
A: inconclusive: 39.8 µM [decreasing]

Q: CNc1ncnc2c1ncn2[C@H]1C[C@H](OP(=O)(O)O)[C@H](COP(=O)(O)O)O1 was tested. Which Potency did it give?
A: inconclusive: 39.8 µM [decreasing]

Q: For CCCn1c(=O)c2ccccc2n2c(SCC(=O)NCc3cccs3)nnc12, which Potency is on record?
A: inactive

Q: With Nc1c(N2CCOCC2)cc(Cl)c2nonc12 as the molecule, how does the Potency read?
A: inconclusive: 31.6 µM [decreasing]

Q: With O=C(NC1CCCCC1)C(c1ccccc1)N(Cc1ccco1)C(=O)Cn1cnc2ccccc21 (stereo not drawn) as the molecule, how does the Potency read?
A: inactive

Q: Which Potency does the source give for CN(C)CCCN1c2ccc3ccccc3c2Sc2cccc(Cl)c21 here?
A: inconclusive: 3.16 µM [decreasing]

Q: With COc1cccc2oc(-c3ccc(O)cc3)cc(=O)c12 as the molecule, how does the Potency read?
A: inconclusive: 39.8 µM [decreasing]

Q: How did the activity change, negative = inhibition turn out when O=C(O)[C@@H](O)[C@@H](O)[C@@H](O)[C@@H](O)c1nc2ccccc2s1 was run?
A: inactive: -3.1% [at 11.4 µM]

Q: For Cc1nn(C(=O)c2ccoc2C)c(N)c1-c1ccccc1, which Potency is on record?
A: inactive

Q: With O=c1[nH]c2c(cc1CNCCN1CCOCC1)c(-c1cccc(F)c1)nn2-c1ccccc1 as the molecule, how does the Potency read?
A: inconclusive: 39.8 µM [decreasing]

Q: How did the Potency turn out when COC(=O)c1ccc(Cn2c(CN3CCOCC3)nc3ccccc3c2=O)o1 was run?
A: inactive

Q: With O=C1c2ccccc2S(=O)(=O)N1CCCCN1CCN(c2ncccn2)CC1 as the molecule, how does the Potency read?
A: inconclusive: 39.8 µM [decreasing]

Q: CCOC(=O)c1sc(NC(=O)CSc2ccccn2)c(C#N)c1C was tested. Which Potency did it give?
A: inactive

Q: Cn1nnnc1Sc1ncnc2scc(-c3ccccc3)c12 was tested. Which Potency did it give?
A: inconclusive: 20 µM [decreasing]

Q: With CCOC(=O)N1CCC2(CC1)C(C#N)=C(N)Oc1c2c(C)nn1-c1cccc(Cl)c1 as the molecule, how does the Potency read?
A: inconclusive: 25.1 µM [decreasing]

Q: Which Potency does the source give for Cc1cccc(OCCCC(=O)Nc2ccc(N3CCOCC3)cc2)c1 here?
A: inconclusive: 3.16 µM [decreasing]

Q: How did the Potency turn out when Nc1cc(N)cc(-c2nc3ccccc3[nH]2)c1 was run?
A: active: 6.31 µM

Q: For CC1(C)S[C@@H]2[C@@H](NC(=O)[C@@H](N)c3ccccc3)C(=O)N2[C@H]1C(=O)O, which Potency is on record?
A: inconclusive: 39.8 µM [decreasing]

Q: With COC(=O)[C@@]1(Cc2ccccc2)[C@H]2c3cc(C(=O)N(C)C)n(Cc4ccc(OC)c(OC)c4)c3C[C@H]2CN1C(=O)c1ccccc1 as the molecule, how does the Potency read?
A: inactive

Q: Which Potency does the source give for Cc1noc(NS(=O)(=O)c2ccc(N)cc2)c1C here?
A: inconclusive: 39.8 µM [decreasing]

Q: O=C(O)/C=C1\CCCc2ccccc2[C@H]1O was tested. Which Potency did it give?
A: inconclusive: 39.8 µM [decreasing]

Q: Which Potency does the source give for CCOC(=O)c1c(-c2ccc(C)o2)csc1NC(=O)CN1CCN(CC)CC1 here?
A: inactive

Q: How did the Potency turn out when C=CCNc1nc(-c2c(C)nc3sccn23)cs1 was run?
A: inactive

Q: OC12CCCCC1C(c1ccc3c(c1)OCO3)N(Cc1ccc(F)cc1)CC2 (stereo not drawn) was tested. Which Potency did it give?
A: inconclusive: 25.1 µM [decreasing]

Q: How did the Potency turn out when CC1(C)c2ccccc2N2CC(=O)NC21/C=C/c1ccco1 (stereo not drawn) was run?
A: inconclusive: 39.8 µM [decreasing]

Q: Which Potency does the source give for COc1cc2c(cc1NC(=O)COC(=O)Cn1cnc3ccccc31)oc1ccccc12 here?
A: inactive

Q: How did the Potency turn out when Cc1nc2cnc(Oc3cccc(Cl)c3)nc2n(CCC#N)c1=O was run?
A: inactive

Q: Which Potency does the source give for O=C1Nc2ccccc2SC(c2ccccc2)C1O (stereo not drawn) here?
A: inconclusive: 25.1 µM [decreasing]

Q: For O=c1c(-c2ccccc2)nc2cnc(N3CCNCC3)nc2n1Cc1cccs1, which Potency is on record?
A: active: 5.01 µM

Q: How did the Potency turn out when O=C(c1cc(-c2ccccn2)nc2c(Cl)cccc12)N1CCN(C(=O)C2CCCO2)CC1 (stereo not drawn) was run?
A: inconclusive: 39.8 µM [decreasing]

Q: How did the Potency turn out when CCOC(=O)c1ccccc1NC(=O)c1cc2sccc2n1C was run?
A: inactive

Q: CC1=NNC(=S)NCCCN2CCN(CCCNC(=S)NN=C(C)C=NNC(=S)NCCCN3CCN(CCCNC(=S)NN=C1)CC3)CC2 was tested. Which Potency did it give?
A: inconclusive: 3.16 µM [decreasing]

Q: Cc1ccc(S(=O)(=O)c2c(N)n(/N=C/c3ccco3)c3nc4ccccc4nc23)cc1C was tested. Which Potency did it give?
A: active: 15.8 µM

Q: Which Potency does the source give for Cc1cc(C)cc([N+](=O)[O-])c1 here?
A: inactive

Q: How did the Potency turn out when O=C(Nc1ccc(Br)cn1)c1ccc2nccnc2c1 was run?
A: active: 15.8 µM

Q: For C[C@H](C[C@H](N)C(=O)O)C(=O)O, which Potency is on record?
A: inconclusive: 39.8 µM [decreasing]

Q: For COc1ccc(OC)c(NC(=O)c2cc3sccc3n2C)c1, which Potency is on record?
A: inactive

Q: With Nc1ccccc1C#Cc1ccccc1 as the molecule, how does the Potency read?
A: inconclusive: 15.8 µM [decreasing]

Q: CC(C)C[C@@H](CC(=O)N[C@H](CC(=O)N[C@@H]1CCCC[C@H]1C(=O)N[C@H](CC(=O)N[C@@H](CCC(=O)O)CC(=O)O)Cc1c[nH]c2ccccc12)C(C)C)NC(=O)[C@@H]1CNCC[C@H]1N was tested. Which Potency did it give?
A: inactive

Q: With CCCOc1ccc(C(=O)Nc2ccc(N3CCN(C(C)=O)CC3)cc2)cc1 as the molecule, how does the Potency read?
A: inconclusive: 39.8 µM [decreasing]

Q: For O=C(c1cc(Br)ccc1O)c1cc(Br)ccc1O, which Potency is on record?
A: inconclusive: 3.16 µM [decreasing]

Q: With CCCCOc1cc(C[C@@H]2CNC(=O)N2)ccc1OC as the molecule, how does the Potency read?
A: inactive

Q: How did the Potency turn out when COCCCn1cnc2c(c1=O)c1nc3ccccc3nc1n2-c1ccc(C)cc1 was run?
A: inconclusive: 2.51 µM [decreasing]

Q: For C[C@@H]1c2ccccc2CN1CC1=NCCN1, which Potency is on record?
A: inconclusive: 39.8 µM [decreasing]

Q: With CC(=O)Nc1ccc(O)cc1 as the molecule, how does the Potency read?
A: inconclusive: 39.8 µM [decreasing]

Q: With Nc1cc([N+](=O)[O-])ccc1O as the molecule, how does the Potency read?
A: inconclusive: 31.6 µM [decreasing]

Q: How did the Potency turn out when CN1CCN(Cc2c(O)ccc3c(=O)c(Oc4ccccc4Cl)c(C(F)(F)F)oc23)CC1 was run?
A: inconclusive: 39.8 µM [decreasing]

Q: Which Potency does the source give for Cc1c(C(=O)Nc2ccc(N3CCOCC3)cc2)oc2ccccc12 here?
A: active: 25.1 µM

Q: How did the activity change, negative = inhibition turn out when O=C(O)[C@@H]1[C@@H](C(=O)Nc2ncccn2)[C@@H]2C=C[C@@H]1O2 was run?
A: inactive: 7.3% [at 11.4 µM]

Q: How did the Potency turn out when Nc1ccc2cc3ccccc3cc2c1 was run?
A: inconclusive: 1.26 µM [decreasing]

Q: How did the Potency turn out when CCn1c(=Nc2ccc(N3CCOCC3)cc2)ccc2ccccc21 was run?
A: inconclusive: 3.16 µM [decreasing]

Q: N=c1c(C(=O)NCc2ccco2)cc2c(=O)n3ccccc3nc2n1Cc1ccccc1 was tested. Which Potency did it give?
A: inconclusive: 1.26 µM [decreasing]

Q: Cn1cccc1C(=O)N1CCC2(CCCN(C(c3ccccc3)c3ccccc3)C2)CC1 was tested. Which Potency did it give?
A: inactive

Q: How did the Potency turn out when Cc1ccc(NC(=O)CS(=O)CC(=O)Nc2ccc3c(c2)OCO3)cc1Cl (stereo not drawn) was run?
A: inconclusive: 31.6 µM [decreasing]

Q: Which Potency does the source give for COc1ccccc1N=c1oc2c(OC)cccc2cc1C(=O)NCc1ccco1 here?
A: active: 2.51 µM

Q: O=C(OCc1nnc(-c2ccccc2)o1)c1ccc2c(c1)OCCO2 was tested. Which Potency did it give?
A: inactive

Q: How did the Potency turn out when O=C1N(c2ccccc2)c2ccccc2C1(Cc1ccncc1)Cc1ccncc1 was run?
A: inconclusive: 39.8 µM [decreasing]

Q: How did the Potency turn out when COCCn1c(=O)c(-c2cc(F)cc(F)c2)nc2cnc(Oc3ccccc3)nc21 was run?
A: inconclusive: 39.8 µM [decreasing]

Q: With CCOC(=O)c1c(NC(=O)c2csc(C)c2)sc(C(C)=O)c1C as the molecule, how does the Potency read?
A: inconclusive: 39.8 µM [decreasing]

Q: For C=C1CC[C@H]2C(C)(C)[C@H](O)CC[C@]2(C)[C@@H]1COc1ccc2ccc(=O)oc2c1, which Potency is on record?
A: inconclusive: 39.8 µM [decreasing]
